Experimental data taken from the supplement of paper PMC11417369.
± gives the standard deviation of the averaged measurements. This is one part of the list.

Tested on: PfAP2-LT AP2 domain (GST-tagged)
Assay: gcPBM binding intensity (ln(normalized median fluorescence intensity)); higher = stronger DNA binding
Method in brief: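 The highest Masliner-normalised natural-log median intensity across replicate spots of either probe orientation is reported as binding intensity. GST-tagged P. falciparum DNA-binding domains expressed in E. coli were applied for 1 h to an Agilent 4 × 180k array of primer-extended double-stranded 36-bp intergenic genomic probes plus negative controls, and bound protein was detected with Alexa488 anti-GST antibody and scanned at 488 nm.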

Sequence	gcPBM binding intensity (ln)
TTCTCACTTTTAAATTTTATTCAAAAATAAGGAAAG [XGTACX_negctrl_site444]	7.94 ± 0.3
ATATATATATATAAATGTACATATGTATAATTCATA [XGTACX_site6679]	9.05 ± 0.39
ATTTCGTTCTTTTATGCACACTCAACATATAAATTA [CACACA_site8322]	8.96 ± 0.33
GAGAGTAAAACAAATATACACACCATAAAGTTATAA [CACACA_site1686]	9.1 ± 0.49
TTATATATTTTGATTGCACACAGAATTTAAATCATG [CACACA_site8735]	9 ± 0.35
ATATTTAAGATTTAATCACACACATATATATTATAT [CACACA_site8946]	9.02 ± 0.44
ATAAAATAAAGGAAAAATATTAAGTTTTAAGAAAAT [CACACA_negctrl_site1066]	8.47 ± 0.53
TTTAATCATTTTAGCTTACACACAAAATTTTGTTAT [CACACA_site2938]	9.16 ± 0.4
ATATATGTGCTAAAATGTACATAGTATAATATATTT [XGTACX_site1949]	8.96 ± 0.35
TTTTTTTTTTGCACGTGTACATAAAAATATATATAT [XGTACX_site3116]	8.63 ± 0.45
AAAATATATTCAACTTGTACATATATATATATATAT [XGTACX_site7629]	9.47 ± 0.16
TTTTTGTAATGACACACACACAAACAGAAAAAATAA [CACACA_site7062]	9.29 ± 0.3
AAAGATTCTTTGAATTGTACAAATATATTTACTCAC [XGTACX_site8772]	8.68 ± 0.39
CAATAATATATATATTGTACATTTTTTTTTATTATT [XGTACX_site3149]	8.7 ± 0.38
ATGTTCCATTTTACTTGTACTAATTTTTTCCTATCT [XGTACX_site6474]	8.9 ± 0.49
TATATTATTTTCTTTTGTACACATATATATCAGTGT [XGTACX_site664]	9.24 ± 0.31
ATGATAATTTTTTTCTCACACACAAATATTTTAATC [CACACA_site3665]	8.97 ± 0.46
TTTTTATTGCAATACTTATATTTTTTTATGATTAAA [TGCATGCA_negctrl_site147]	8.64 ± 0.64
ATAATAATAAAGTATGCATGCATATAATATAATATA [TGCATGCA_site796]	9.27 ± 0.3
TAAATATTATTATATACATGCACTTACAACTTTTTT [TGCATGCA_site877]	8.79 ± 0.54
AAATCACATAAAACATAATCAAATGAAATATAATCA [CACACA_negctrl_site123]	8.85 ± 0.42
ACTGTAAATTTATTCGGTACACATATAAATAATATT [XGTACX_site7346]	8.73 ± 0.48

Sequence	gcPBM binding intensity (ln)
TTAATGGCAAAATAGGCACACACACCGATACATATA [CACACA_site8263]	9.62 ± 0.4
ACAGTAGCCAGTAACTGTACGGATTGTAGAGATCAG [XGTACX_site4873]	8.98 ± 0.49
ATAATATTTAGGTGTGCACACAAACATACATATATA [CACACA_site9120]	9.62 ± 0.42
ATTATTTTTAAAAATTGTACAGTATAAGAGAGAAAT [XGTACX_site7094]	8.62 ± 0.35
TATTGTAAAAAGATTACACACGTTCTATATACTTTT [CACACA_site5379]	8.93 ± 0.44
AATAAAAAAATATATTGTACTAATAATTATATGTTT [XGTACX_site2246]	8.53 ± 0.46
CCAACATGCAGACGCACACACAAAAAAAGCATGCAT [CACACA_site74]	9.54 ± 0.4
AATAATATATATATTACACACTAATTGTATTATATA [CACACA_site448]	8.79 ± 0.4
TAACAATATCTAGATACACACACATATCTCTCAATC [CACACA_site8122]	9.27 ± 0.3
TTAATACCCGGACACACACACACAAAATAAAATACA [CACACA_site4296]	9.85 ± 0.27
ATTTATTTATTTAGCTGTACATTTATACAGAACGAT [XGTACX_site3336]	8.61 ± 0.34
AAAATGAATAAAAATACACACATATATGTTATTCTC [CACACA_site2671]	9.03 ± 0.42
AAATTGAGACAACAGGTGCATATAAATATACAGTGT [GTGCAC_site9634]	9.18 ± 0.44
AATAAAAATTCAAGTTGTACTTTTTTAAAAATACAA [XGTACX_site3949]	8.23 ± 0.59
AATTTTTGTTACAAGATGCACTTAATTTTTCTAAAT	8.51 ± 0.42
TATTCATTAAACCATACACACATAATTTTTTTATAA [CACACA_site4618]	8.71 ± 0.35
ATATATTATATAAAAAGTACTAAAATAGTAAGATGT [XGTACX_site7493]	9.14 ± 0.53
AATGATTTTAAATGAACATAATTTATATTCATAACA [GTGCAC_negctrl_site256]	8.27 ± 0.47
GTGTGCCAAATTAGCACACACATATATACATGAATT [CACACA_site7346]	9.74 ± 0.29
TACCAAAAAAAAAAAATAATAATAAAAAAAAAAAAA [TGCATGCA_negctrl_site11]	8.28 ± 0.51
AACGAAGCATAAAATGTTATGTATATATATAAATAT [TGCATGCA_negctrl_site304]	8.91 ± 0.49
ATCATTTTGTGTTCAAGTACATAATGTTTTACACAA [XGTACX_site3565]	8.91 ± 0.3

Sequence	gcPBM binding intensity (ln)
CATACATTATAAGATACATGCATATATCTGAACATA [TGCATGCA_site797]	8.88 ± 0.46
ATGTGGAAATAGAGCACACATATATATAATATATAT [CACACA_site884]	9.2 ± 0.39
GCAAAACATTTTTAAAATAAAAATAATAAAATATAT [CACACA_negctrl_site219]	8.49 ± 0.45
ACATTGAACAAAATAGTAAGCACATATATATATATA [GTGCAC_negctrl_site679]	9.69 ± 0.39
TGATTCATTGATAAGGGTACATTTATAATTATGATA [XGTACX_site6319]	8.48 ± 0.34
ACGTATCAATTTATTGGTACACATAAATATATATAT [XGTACX_site5556]	8.83 ± 0.35
ACACATAATATAAAGGTGCTATATTGTATTCATTTT [GTGCAC_site9457]	8.95 ± 0.47
TGCAAAAAAAAAAAAAAAAAATATATGGAAATATAT [GTGCAC_negctrl_site257]	8.41 ± 0.5
AAACATATATTAAGCACACACAAACAAAAAAACAAA [CACACA_site2549]	9.59 ± 0.61
TTTTCATACACTGCTAGTATATACTACCACTGACAT [GTGCAC_negctrl_site514]	9.06 ± 0.41
TGTTTGAATATAATCACACATTTATATAAAAAGTTA [CACACA_site5237]	8.39 ± 0.32
TCTTTTTGCATGTGTGTGCGCACAAAATACACAAAA [GTGCAC_site9718]	9.39 ± 0.3
AAAATATAGTAACACATACACACATATATATTTATA [CACACA_site2504]	9.19 ± 0.38
AAATTGAAATATTCCTGTACACATTTTGAAAACTTA [XGTACX_site6101]	8.45 ± 0.43
TTGTTATGTTTTATTTGTACGTAGGTTTCTATCAAA [XGTACX_site7636]	8.79 ± 0.52
TATTAAACTAAATGTAGTACATACACAAAAGAAACC [XGTACX_site606]	9.06 ± 0.34
AAAAAATATAAATATGTAAAAAGAGAAAAAAAAAAG [GTGCAC_negctrl_site9]	8.63 ± 0.57
TATAAACATAAAACCAGTACATATATATTTTTCTTC [XGTACX_site212]	8.71 ± 0.45
ATATTTAATTCATCATGTACACAAATAAGAAACAAA [XGTACX_site8076]	8.79 ± 0.48
TGAAAATGGGAACCGTGTACAGGGCAGTTATAGGGG [XGTACX_site2950]	9.29 ± 0.23
TTATGAAAATATTTTTTTCGTTTGATGTATATGTTT [CACACA_negctrl_site1556]	8.7 ± 0.57
TAAAAAATTAAGCAACGTACAAATGAAAAGTATAAT [XGTACX_site1058]	9.04 ± 0.53

Sequence	gcPBM binding intensity (ln)
TGATAACCAAAAAGGGGTACATACACAAAAAAATAC [XGTACX_site1254]	9.14 ± 0.56
TACTTATTAGACTATTGTACATACATTATTAATATT [XGTACX_site7849]	8.86 ± 0.42
AACAACATTTGATAAACACACAGAAGTATAAATATA [CACACA_site5327]	9.04 ± 0.47
TACGTATTATAAATATGTACATATAATATGTATATA [XGTACX_site468]	8.66 ± 0.4
TATATCATCATGTATGTACACACATACATATATTAT [CACACA_site8387]	9.21 ± 0.33
ATAACAAAATAATAATGTACGTATAAATATAATTTA [XGTACX_site6049]	8.93 ± 0.38
AACAATAAAAATAATTGTACAAGTCTAAAAAAAATT [XGTACX_site20]	8.79 ± 0.55
ATAAAGAAAAATAGAAGTACATATATGCATGTTAAT [XGTACX_site4480]	9.12 ± 0.35
CAAAAACATACCTACACACACAATATGTATATATAA [CACACA_site3514]	9.59 ± 0.26
TAACAATAACTTTATACACACATAATATAAATATAT [CACACA_site7635]	8.89 ± 0.42
AAATCATATTCTTATTTTATTTTTTTTATTTTTTAT [XGTACX_negctrl_site166]	8.59 ± 0.54
GTTATATGAACTTATATACACACCATTTTTGTAAAT [CACACA_site695]	8.88 ± 0.4
TGTAGATATTTTTGGGGTACTTTATAAAGAACTAGT [XGTACX_site5635]	8.5 ± 0.21
AAAAAAAAAAAAAAAAGTACACATAATTGTATATGT [XGTACX_site6339]	8.67 ± 0.35
TTACATATATTGGGGTGTACATATATTTTCCTTCAC [XGTACX_site6224]	9.06 ± 0.51
ATGAAAAAGTGCTGGATTCTAAAGAAAAAAAAAAAA [CACACA_negctrl_site962]	8.54 ± 0.57
AAATATTGTTTTTTATGTACTTATTTTTATTTATTT [XGTACX_site3481]	8.87 ± 0.47
ATAAAATCAACAAATCAGGATGTCACGTAAATATCA [CACACA_negctrl_site1009]	9.14 ± 0.4
ATATTTTATATATTTGTGCACAATATTATAATATAT	8.95 ± 0.32
GAAAAACAAATATATTAACACACAAACATATAAACA [CACACA_site9315]	9.2 ± 0.39
GTTTATTTTTTCATTTGTACACATAAATAAATATAT [XGTACX_site7752]	8.82 ± 0.47
GGTATATATTCTATCACACATATTTCCATGAAAATA [CACACA_site4728]	8.74 ± 0.3
